PubChem BioAssay AID686979 (National Center for Advancing Translational Sciences (NCATS), 2013)
Hit rate of the full screen: of about 420,000 compounds, about 50,000 (12%) were called active. The shares of active, inactive and inconclusive entries below differ from those in the screen. The call rests on the fitted dose curve; in most records, active means well fitted inhibition curve with a large enough effect; inconclusive means small, poorly fitted or top-dose-only effect; inactive means flat fitted curve, though single readings scatter. No potency is given beside an inconclusive call; the fits are too rough.
On the % scale 0 is the no-effect control and ±100 the full control effect; potency means the concentration at half of the fitted maximal effect; tags describe the fitted curve by direction and shape.

Assay: qHTS for Inhibitors of human tyrosyl-DNA phosphodiesterase 1 (TDP1): qHTS in cells in presence of CPT; further: nearly all actives have a fitted effect of over 55% in size
Details: chicken DT40 Tdp1-/-;hTDP1 cells + 20 nM CPT, ATP luminescence, 48 h; activity change, negative = growth inhibition: at 46.2 µM (top of the series)
How it was run: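 Cell growth measured by CellTiter-Glo luminescence after a minimum 48 h, 37 C compound exposure with 20 nM CPT in Tdp1-knockout DT40 cells stably expressing hTDP1, seeded 400/well; qHTS titration format.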
In the case of `O=C(NC1(Cc2ccccc2)CCN(CCCc2ccccc2)C1=O)c1ccccc1` (stereo not given), the Potency is reported as active: 0.651 µM. For `CSc1oc(-c2cccs2)nc1S(=O)(=O)c1ccccc1`, the “activity change, negative = growth inhibition” value was inactive: -14.1%. In the case of `Cc1ccc(N2C(=O)c3cccc4c(N5CCN(C)CC5)ccc(c34)C2=O)c2cccnc12`, the Potency is reported as inconclusive [inhibitor, full curve]. With `COc1ccc(C(=O)Nc2nnc(CCc3ccccc3)s2)c(OC)c1` the Potency was inconclusive [inhibitor, single point]. In the case of `CCC(C)(C)n1nnnc1C(c1cc2cccc(C)c2[nH]c1=O)N1CCCC1` (stereo not given), the activity change, negative = growth inhibition is reported as inconclusive: -31.3% [inhibitor]. With `Cc1[nH]c(=O)[nH]c(=O)c1S(=O)(=O)Nc1cccc(C(F)(F)F)c1` the “activity change, negative = growth inhibition” value was inactive: -1.77%. In the case of `O=C(Oc1ccc(Cl)c2cccnc12)c1cccnc1`, the Potency is reported as inconclusive [inhibitor, single point]. With `CC(C)CC(=O)Nc1c2c(nn1-c1cccc(Cl)c1)CS(=O)C2` (stereo not given) the “activity change, negative = growth inhibition” value was inactive: 1.41%. For `COc1ccccc1C(=O)NC(=O)CSc1ccc(C)c(C)c1`, the “activity change, negative = growth inhibition” value was inactive: -10.5%. For `CC(C)OC(=O)CSc1nc(N)c(C#N)cc1C#N`, the “activity change, negative = growth inhibition” value was inactive: 0.606%. For `COCCN(CCOC)Cc1c(O)ccc2c1O/C(=C\c1ccc(C)o1)C2=O`, the Potency was inconclusive [inhibitor, single point]. With `CC(=O)c1sc(N/N=C\c2ccc(N(C)C)cc2)nc1C` the “activity change, negative = growth inhibition” value was inactive: -7.59%. For `COc1ccc(-c2nn(-c3ccccc3)cc2C(=O)Nc2nccs2)cc1`, the Potency was inconclusive [inhibitor, single point]. For `CC(C)(C)c1nnc(NC(=O)CCS(=O)(=O)Cc2ccccc2)s1`, the Potency was active: 9.2 µM. In the case of `CN(C)c1nc(C(=O)O)nc(N2CCOCC2)n1`, the “activity change, negative = growth inhibition” value is reported as inactive: -4.19%. With `COc1ccc(C)cc1NC(=S)NC(C)c1ccc(OC)c(OC)c1` (stereo not given) the Potency was inconclusive [inhibitor, single point]. In the case of `Oc1ccccc1OCCOc1ccccc1OCCOc1ccccc1O`, the Potency is reported as inconclusive [inhibitor, single point]. For `CCOC(=O)c1nnn(-c2nonc2N)c1-c1ccc(OCC)cc1`, the “activity change, negative = growth inhibition” value was inactive: -4.23%. For `Oc1ccccc1CNc1ncc(Br)cc1Br`, the Potency was inconclusive [inhibitor, single point]. For `COc1cc(C(=O)Nc2ccc(-c3nc4cc(C)c(C)cc4o3)cc2)cc(OC)c1OC`, the Potency was inconclusive [inhibitor, partial curve, poor fit]. In the case of `COc1ccccc1S(=O)(=O)N[C@@H]1CC[C@@H](CCn2cc(C3CC3)nn2)O[C@@H]1CO`, the “activity change, negative = growth inhibition” value is reported as inactive: 2.72%. In the case of `Cc1ccc(SCCNC(=O)CN(c2cccc(C)c2C)S(C)(=O)=O)cc1`, the Potency is reported as inconclusive [inhibitor, partial curve]. In the case of `CC(C)(C)c1cc2ncnc(N3CCCCC3)c2s1`, the Potency is reported as active: 13 µM. With `COc1ccc2c(c1)c(C(=O)N/N=C/c1ccc(O)c(O)c1)c(C)n2C` the Potency was inconclusive [inhibitor, full curve]. With `CC1S/C(=N/N=C2CCCCC2)NC1=O` (stereo not given) the Potency was active: 2.91 µM. With `COC(=O)[C@@]1(Cc2ccc(F)cc2)[C@H]2c3cc(C(=O)N4CCCC4)n(CCc4c[nH]c5ccccc45)c3C[C@H]2CN1C(=O)c1ccccc1` the Potency was inconclusive [inhibitor, single point]. With `C=CC1C(N2CCOCC2)C(C)(C)S1(=O)=O` (stereo not given) the Potency was active: 23.1 µM. For `CCC(=O)Nc1ccc(Oc2ccc(NC(=O)CC)c(NC(=O)CC)c2)cc1`, the “activity change, negative = growth inhibition” value was inactive: -1.11%. For `O=C(NC1CCCCC1)C(c1ccc(F)cc1)N(Cc1ccc2c(c1)OCO2)C(=O)c1cnsn1` (stereo not given), the Potency was inconclusive [inhibitor, partial curve]. With `COc1cc(OC)c(OC)cc1CN1CCCC(c2[nH]ncc2-c2cccc(C(F)(F)F)c2)C1` (stereo not given) the Potency was inconclusive [inhibitor, single point]. With `COc1cccc(N2CCN(Cc3ccsc3)CC2)c1` the “activity change, negative = growth inhibition” value was inactive: -1.67%. In the case of `CC(C)Oc1ccc(C(=O)N2CCC(c3nc4ccccc4s3)CC2)cc1`, the “activity change, negative = growth inhibition” value is reported as inactive: -29.7%. With `C/C(=N/OC(=O)c1ccc(Cl)cc1Cl)c1oc(C)nc1C` the “activity change, negative = growth inhibition” value was inactive: 3.91%. With `CN1CCN(C(N)=NC(=O)c2ccccc2)CC1` the “activity change, negative = growth inhibition” value was inactive: -3.69%. For `CC(C)(C)c1cc(C(c2cccnc2)N2CCN(CCO)CC2)cc(C(C)(C)C)c1O` (stereo not given), the Potency was active: 1.46 µM. With `CCOC(=O)c1c(C)oc2nc(C)nc(NCCc3ccc(OCC)cc3)c12` the Potency was active: 6.51 µM. For `CCOC(=O)C1CCN(S(=O)(=O)c2ccc3c(c2)N(C(C)=O)CC(C)S3)CC1` (stereo not given), the Potency was inconclusive [inhibitor, single point]. In the case of `CC1=C(C(=O)NCc2cccc(Cl)c2)C2(CCCCCC2)OC1=O`, the Potency is reported as inconclusive [inhibitor, single point]. In the case of `O=C(c1ccccc1)c1ccc(OCC(O)CN2CCN(Cc3ccccc3)CC2)cc1` (stereo not given), the Potency is reported as active: 20.6 µM. With `CC(=O)C1=NN(c2ccccc2)C(c2ccc3c(c2)OCO3)N1c1ccccc1` (stereo not given) the Potency was inconclusive [inhibitor, single point]. For `COc1ccc(/C=C/C(=O)NC(=S)Nc2ccccc2C(=O)NC2CCCCC2)cc1`, the Potency was inconclusive [inhibitor, single point]. With `CC(NC(=O)COc1ccccc1F)C1CC2CCC1C2` (stereo not given) the activity change, negative = growth inhibition was inconclusive: -33.8% [inhibitor]. In the case of `COc1cc(C2NC(=O)CCC2[N+](=O)[O-])cc(OC)c1OC` (stereo not given), the “activity change, negative = growth inhibition” value is reported as inactive: -13.9%. For `CN(C)S(=O)(=O)c1ccc(Cl)c(-c2nnc3n2CCCCC3)c1`, the “activity change, negative = growth inhibition” value was inactive: -3.89%. With `CNc1ncnc2ccc(-c3ccccc3C#N)cc12` the Potency was inconclusive [inhibitor, single point]. In the case of `O=C(CN1CCC(C(=O)c2ccc(F)cc2)CC1)NCc1ccccc1F`, the activity change, negative = growth inhibition is reported as inconclusive: -31.2% [inhibitor]. With `CC(=O)Nc1ccc(S(=O)(=O)N2CCC(n3c(C)nc4cccnc43)CC2)cc1` the Potency was inconclusive [inhibitor, partial curve]. For `Cc1ccc(/C=N/NC(=O)C(C)Oc2cccc3ccccc23)o1` (stereo not given), the Potency was inconclusive [inhibitor, single point]. For `O=C(N=c1nc2ccccn2s1)c1ccccc1`, the Potency was inconclusive [inhibitor, partial curve]. In the case of `CCOC(=O)Cc1csc(NC(=O)c2cc(-c3ccncc3)nc3ccccc23)n1`, the Potency is reported as active: 16.4 µM. In the case of `COc1ccc(C2CC(c3cccs3)=NN2C(=O)CCCC(=O)O)cc1OC` (stereo not given), the “activity change, negative = growth inhibition” value is reported as inactive: 3.2%. With `Cc1ccc(C(=O)NNC(=O)CCCN2C(=O)/C(=C/c3ccccc3Cl)SC2=S)cc1` the Potency was inconclusive [inhibitor, single point]. In the case of `Cc1[nH]c2ccccc2c1/C=C/c1c(C)[nH]c2ccccc12`, the Potency is reported as active: 11.2 µM. For `N#CC1=C(N)NC(SCC(=O)Nc2ccccc2)=C(C#N)C12CCCC2`, the Potency was inconclusive [inhibitor, partial curve]. For `CC(=O)Nc1ccc(NC(=O)CSc2nc3c([nH]c4ccccc43)c(=O)n2-c2ccccc2F)cc1`, the Potency was inconclusive [inhibitor, single point]. In the case of `CCOC(=O)C1=C(C)Nc2nc3ccccc3n2C1c1cccs1` (stereo not given), the “activity change, negative = growth inhibition” value is reported as inactive: 0.312%. With `O=C(Nc1ccc(-n2nncc2-c2ccco2)cc1)c1ccc(F)cc1` the Potency was inconclusive [inhibitor, partial curve]. With `COCCNC(=O)CCCn1c(=O)c2ccccc2n(Cc2ccccc2C#N)c1=O` the “activity change, negative = growth inhibition” value was inactive: 9.94%. In the case of `CC(C)CCN1CCC[C@]2(N[C@H](c3ccc(C(F)(F)F)cc3)[C@@H]3C(=O)N(Cc4ccccc4)C(=O)[C@@H]32)C1=O`, the Potency is reported as active: 18.4 µM. In the case of `COc1ccc(NC(=O)CCCc2nnc3n(C(C)C)c(=O)c4sccc4n23)cc1Cl`, the Potency is reported as active: 13 µM. With `O=C(c1ccco1)N1CCN(Cc2cccc([N+](=O)[O-])c2)CC1` the “activity change, negative = growth inhibition” value was inactive: -21.8%. With `CCc1ccc(OCc2n[nH]c(=S)n2Cc2ccccc2)cc1` the Potency was inconclusive [inhibitor, single point]. For `Cc1occc1C(=O)NN=C1C2CC3CC(C2)CC1C3`, the “activity change, negative = growth inhibition” value was inactive: -2.61%. In the case of `COc1ccc2nc(SCC(=O)N(C)C3CCCCC3)c(C#N)cc2c1`, the Potency is reported as inconclusive [inhibitor, single point]. In the case of `CC1(C(=O)NS(=O)(=O)c2cccc(F)c2)CCN1C(=O)c1cccc(F)c1` (stereo not given), the “activity change, negative = growth inhibition” value is reported as inactive: -4.41%. In the case of `COc1ccc(C(=O)NCc2nnc(SCC(=O)Nc3nc4ccc(C)cc4s3)o2)cc1OC`, the Potency is reported as active: 4.11 µM. For `CCOc1ccc(CN(CCc2ccc3c(c2)OCO3)Cc2cc(OC)cc(OC)c2)cc1`, the Potency was inconclusive [inhibitor, single point]. For `CC1(C)CC2CC(C)(CN2/C=C2/CCCCC2=O)C1` (stereo not given), the Potency was inconclusive [inhibitor, single point]. With `O=C(/C=C/c1ccccc1[N+](=O)[O-])OCC(=O)N1CCCC1` the “activity change, negative = growth inhibition” value was inactive: -21.3%. For `FC(F)(F)c1nnc(Nc2ccc(Cl)cc2)s1`, the Potency was inconclusive [inhibitor, single point]. In the case of `COC(=O)c1sc(N)c(C(=O)OC)c1COC(=O)C1CC(=O)N(Cc2ccco2)C1` (stereo not given), the “activity change, negative = growth inhibition” value is reported as inactive: -27.4%. For `Cn1c(=O)[nH]c(=O)c2c1nc(Br)n2Cc1ccc(Cl)cc1`, the Potency was inconclusive [inhibitor, single point]. With `Cc1nn(Cc2ccccc2Cl)c(C)c1C(=O)NCCN1C(=O)S/C(=C\c2ccccc2)C1=O` the Potency was inconclusive [inhibitor, single point]. For `Fc1cccc(F)c1/C=N/NC(=S)Nc1cccnc1`, the Potency was inconclusive [inhibitor, single point]. In the case of `CCC1COCCS(=O)(=O)N1Cc1ccc(F)cc1` (stereo not given), the Potency is reported as inconclusive [inhibitor, single point].
